# Measurements as given in the supplement of paper PMC11417369.
# Some of the results follow.
# Test system: PfHDP1 homeodomain (GST-tagged)
# Experiment: gcPBM binding intensity (ln(normalized median fluorescence intensity)); higher = stronger DNA binding
# Method in brief: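 For binding intensity, the highest Masliner-normalised natural-log median intensity across replicate spots of either probe orientation was taken. Protein bound to the array was stained with Alexa488 anti-GST antibody and scanned at 488 nm. The protein, GST-tagged P. falciparum DNA-binding domains from E. coli at about 25 μg on average, had been applied for 1 h to an Agilent 4 × 180k array of primer-extended double-stranded 36-bp intergenic genomic probes and negative controls.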
row,Sequence,gcPBM binding intensity (ln)
1,TATATGTTATATTTAACACACATATAAGGTACATAT [CACACA_site612],6.57
2,AATAAATAAAAATATATATATATAATATACATGTGT [TGCATGCA_negctrl_site369],6.67
3,GGATGTATTTATATGTGTATGTGTTTGGAAATATGT [XGTACX_negctrl_site99],7.02
4,TTTTATTTCAATCCACAAGGGATAAAATAAAGTTTT [CACACA_negctrl_site699],5.83
5,TTTTTAAAATTTTTAAAAATATTATGTTAAATATAT [CACACA_negctrl_site415],6.29
6,TATGTATGTTAGTGTGCACACATAAATATTATATAT [CACACA_site9121],11.1
7,ACATATGAAAAATATGCATGCAAATATTATTTAACA [TGCATGCA_site802],7.03
8,AAAAAAAAAAAAATCTCACACATAAAGAGATTATGA [CACACA_site4408],6.05
9,TTGAAAGAAAATAAAATAAAATAAAATAAAATAAAA [CACACA_negctrl_site859],6.29
10,ATATATATGTATTTATGTACATATTATTTTTCTTAA [XGTACX_site8169],6.25
11,AAAAAAAAAAAAAAATGTACATAAAAATGATATAAT [XGTACX_site4096],6.57
12,TATAAGAAAAATAACACACACATAAACATAAATACA [CACACA_site5536],7.08
13,TTCTAAACACATTGACAAATTAATATATTACAGCAA [GTGCAC_negctrl_site121],6.59
14,TTATAATTCTATTATCTGTTCTTTTTATATTTTTTT [CACACA_negctrl_site855],6.16
15,TTATTTTTCAATGAAAAGGATTATATATATATATAT [CACACA_negctrl_site757],9.21
16,ATTAAGTATATTTCTGCACACAAAAAAAAAAACCAA [CACACA_site9342],8.43
17,TATATATAGAAACACACACACATATATATATATATA [CACACA_site773],9.64
18,GTATATATATATAAAAGTACATGTTATGAAAAAAAA [XGTACX_site5410],6.91
19,TTTTTTCTCAAAAAAAAAACCTATGGTTATTAAGAT [XGTACX_negctrl_site534],6.11
20,TTAAGAATCTATACTAGTACATATATGTATACAAGC [XGTACX_site8025],6.46
21,TATATATATATGTGTAGTACAACAAATATGAAAAAT [XGTACX_site4059],8.82
22,TGTAGAACAAAAAATTGTACATATTTGTAAAAAAAA [XGTACX_site3850],6.43

row,Sequence,gcPBM binding intensity (ln)
1,ATTGTGTTAATAAAATGTACATTTTCTCTACTTTAA [XGTACX_site1199],6.76
2,ATTTATTTGTTTATTTGTTTATTTGTTTATTTGTTT [CACACA_negctrl_site1386],6.62
3,ATGAAAACCATGACGGGTACTCATTTATTATTTTAT [XGTACX_site6724],5.97
4,AATTTAATATAATGCACACATAAAAAAAAATTCAAA [CACACA_site2062],10.5
5,TGATGAAAATTTTTCTGTACAAAAAGTATGAAGGTA [XGTACX_site8901],7.13
6,CCTAATTTTATTAGGGTGCATTTTTAGTTAAATATA,7.68
7,ACAATATATAAAATATGTACATAATATATATAATGA [XGTACX_site8731],6.4
8,TAAGTTATATGTACTACACACGTACACAAAATAAGA [CACACA_site9237],7
9,ATCCACAAATTAACAAGTACATATATATATATATAT [XGTACX_site1267],9.38
10,AAAATAATAAAAAACTGTACGAATTAAAAATTAACA [XGTACX_site8454],6.24
11,TTGGATTTTTCCTATGAACACACGGGGTTACAATTA [CACACA_site449],6.13
12,TCCAATAATTTATAAAAAAAAAAAGGGAAAATGTAT [TGCATGCA_negctrl_site492],6.39
13,ATATATTTATTATTAACATGCAATCATTATATATAA [TGCATGCA_site404],6.4
14,TTAATATGAGAATAATGTACAAGAAAATATTACATA [XGTACX_site6609],6.3
15,GATACCTATAGACACACACACATACCTATATACATA [CACACA_site7586],7.1
16,TTTATAAATAAACACACACACATGTGAACATAAAAA [CACACA_site5110],6.76
17,ATTCATCCAATAATGTGAATTATCATGATAAACTTA [TGCATGCA_negctrl_site406],6.16
18,GAAATACATTTTAAAAAATAAGTAATTATAAAATAA [TGCATGCA_negctrl_site303],6.07
19,ATATATGTAAATGAATGTACATTATTTTATATATTA [XGTACX_site8460],6.29
20,ATTATTCTATATGAAACATGCATACATTTGTATTTT [TGCATGCA_site823],6.53
21,ATCAAAATTGTCATTACACACCTTTATTTTTAGAAT [CACACA_site1813],6.6
22,TACAACTTAATATGTACACACAAATATATATATATA [CACACA_site5138],9

row,Sequence,gcPBM binding intensity (ln)
1,TTTTTTTTTTTTTTTACACACTCCAATAAAAAAGAA [CACACA_site2119],6.49
2,TTTTTTTATTAATGTAGTACAATATAATGTTATATT [XGTACX_site2295],6.72
3,TAATTTATAAATATAATATTTATGTATATGATGTTT [CACACA_negctrl_site464],6.52
4,TATAAAAATATATTTACACACTATAAATATCGAAAG [CACACA_site6896],6.38
5,ATTATATATATCAGGTGTACGTAAAAAAAATGGACG [XGTACX_site1028],7.41
6,AAAAGAAAAAAAAGTACACACATGTATATTAAGCGT [CACACA_site5402],6.63
7,TTAATGTACAGACACCCACACACAAACAAATATATA [CACACA_site8888],7.11
8,GCGTGCGTGTACTTAACACACATAATATGTATTTAT [CACACA_site1247],6.64
9,TTTTTTTTTCCCCCATGTACATAAATAAGTATATCT [XGTACX_site6965],7.43
10,CTTTCATTTCTATCTACACACATATTTTTTCCAAGT [CACACA_site2972],6.89
11,ATATGTACTATACGCACACACACTCACATATATATA [CACACA_site3239],8.19
12,AATTATATGAAATAAACACACATATGCAATATTGCA [CACACA_site6988],7.22
13,TATATATATAAATACAGTACATATATAATATTTTGA [XGTACX_site637],7.02
14,TAACTTAATTTTAATGCACACAATTTATATATATAT [CACACA_site6022],10.5
15,AAAAATATATATATATATATATATATATTATTTTTT [TGCATGCA_negctrl_site378],7
16,TTCAAGATTTATTATACACACATATTAAAATATATA [CACACA_site4479],6.61
17,AAAAAATTATTATGAACACACATTTATTATATTCAT [CACACA_site1566],6.03
18,AATCTATCAAAGTGTACATGCAATAAAAAAAAAAAA [TGCATGCA_site103],6.74
19,AAACATTTTCATTTGACACACATCATATATTTATAT [CACACA_site1794],6.76
20,ATATATATATAAATATGTACATATATATATTATATA [XGTACX_site120],8.27
21,TATAAGATTATACAAAGTACATATAAATAATATATT [XGTACX_site1917],5.96
22,ATGGGTTAAAAATGCACACAAAAAAATATACAGATA [CACACA_site4321],9.78

row,Sequence,gcPBM binding intensity (ln)
1,TGAAATAAAAAATATAGTACTCGTTCGTAACCAAAA [XGTACX_site413],6.17
2,TTAAAAAAAGATTATACACACACATATATAAACATA [CACACA_site8136],6.7
3,TCCTCTTTTATTTTTACACACGCGTAAACATATATA [CACACA_site667],7.32
4,TGTATTAATAAAAATACACACATCATATTATAGAAA [CACACA_site7629],6.45
5,TTTATACTATAATTATGTACTTATAAAAGGAATAAA [XGTACX_site8027],6.44
6,TATATAAATATACATTGTACTCAACATTTTCATTAA [XGTACX_site3690],6.21
7,ATAAACACATCTATATGTACATATATATATATATAC [XGTACX_site347],6.72
8,ATGTAAATACATATATGTACACAAATATATATATAT [XGTACX_site3537],9.01
9,TATATTAAATAAAAAGTGCATGTCTCATAAGATGGA [GTGCAC_site9520],7.24
10,ATAAAATGTTAAGGGTGTACTTTACACATCTCCTAT [XGTACX_site4699],6.3
11,TATAAATAAAGCAGTACACACATTTATTTTAGATAC [CACACA_site7566],6.46
12,ATAGGGAATTTATGCACACAGTTAAGGGGGAAAATT [CACACA_site5183],9.92
13,TTATATTATTTTTATACATGCATTTCTATATATTTT [TGCATGCA_site164],7.13
14,AAGAAAAAATATATATATATATATATATATAATATG [TGCATGCA_negctrl_site417],7.32
15,ATTTGTGATTTGTGTGTGCACGTATTTACAGAACAA [GTGCAC_site9498],9.53
16,ATATATAAGGATGTCACACATAAATATTAACACTAA [CACACA_site5101],6.39
17,ACATAATTAACAAATACACACACACCCACCCACAAA [CACACA_site8069],7.85
18,TTCAATTTTTTATGAACACACAAAAAAAAAAAAAAA [CACACA_site2533],6.18
19,TATGATATATATAATACACACATATACATAAGATCT [CACACA_site1119],6.75
20,AATATATATATATTATCACACACTCACGTTTGACAA [CACACA_site8130],6.41
21,ATTATATCATATATATGTACACATATATAACATGAT [XGTACX_site7],6.43
22,TAAAAAAAACGAACAAGTACACATAAAAAAAAATTA [XGTACX_site5982],6.2
